Data as given in the supplement of paper PMC7826260.
Some of the results follow. Cleavage of a single-stranded DNA pool by Rep nickase domains was read by sequencing for 1 h at 37 °C with 3 µM enzyme; only the middle of the 90-letter strands is printed. Numbers give uncut DNA relative to the enzyme-free pool, as log2; uncut sequences lie near 0, cut ones below; no hit call is given. Shares of all reads are compared; where an enzyme cuts many sequences, the uncut ones exceed 0.

Legend:
Assay in all cases: uncleaved DNA left, log2 of reads against the no-enzyme library (log2 ratio); higher = less cleavage (more negative = more Rep cleavage of the k-mer); sequences stand for … in CTCGTCCG…ACCGGAGA
[1] = test system: T1, Rep nickase domain of Muscovy duck circovirus
T1 sequence (residues 1-111 of Rep, tag left off): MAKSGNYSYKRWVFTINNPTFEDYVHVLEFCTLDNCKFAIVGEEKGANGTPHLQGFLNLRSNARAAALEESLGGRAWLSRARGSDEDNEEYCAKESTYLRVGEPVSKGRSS
Experimental: (§1)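 A pool of 90-nt single-stranded DNAs with seven random bases just before the constant AC of the nick site (name = the seven bases) was cut by 3 µM recombinant His6-SUMO-tagged Rep nickase domain (300 nM DNA, 50 mM HEPES pH 8.0, 50 mM NaCl, 1 mM MnCl2, 1 h, 37 °C, three replicates). Uncut DNA was amplified and sequenced.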

[2] = test system: T2, Rep nickase domain of banana bunchy top virus
T2 sequence (residues 1-94 of Rep, tag left off): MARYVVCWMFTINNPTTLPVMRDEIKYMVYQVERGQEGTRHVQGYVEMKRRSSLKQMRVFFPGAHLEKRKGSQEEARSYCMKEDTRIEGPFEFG
Experimental: as §1

[3] = test system: T3, Rep nickase domain of cabbage leaf curl virus
T3 sequence (residues 1-116 of Rep, tag left off): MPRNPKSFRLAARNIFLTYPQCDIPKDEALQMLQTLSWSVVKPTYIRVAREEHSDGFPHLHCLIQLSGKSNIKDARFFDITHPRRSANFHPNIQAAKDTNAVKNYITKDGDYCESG
Experimental: as §1

[4] = test system: T4, Rep nickase domain of chickpea chlorotic dwarf virus
T4 sequence (residues 1-124 of Rep, tag left off): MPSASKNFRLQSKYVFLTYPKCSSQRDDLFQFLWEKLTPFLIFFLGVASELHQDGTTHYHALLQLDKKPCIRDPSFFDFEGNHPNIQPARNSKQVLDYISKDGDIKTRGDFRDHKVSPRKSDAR
Experimental: as §1

[5] = test system: T5, Rep nickase domain of faba bean necrotic yellows virus
T5 sequence (residues 1-98 of Rep, tag left off): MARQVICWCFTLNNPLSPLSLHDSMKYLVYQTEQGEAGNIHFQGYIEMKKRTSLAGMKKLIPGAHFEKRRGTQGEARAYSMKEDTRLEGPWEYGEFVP
Experimental: as §1

[6] = test system: T6, Rep nickase domain of maize striate mosaic virus
T6 sequence (residues 1-117 of Rep, tag left off): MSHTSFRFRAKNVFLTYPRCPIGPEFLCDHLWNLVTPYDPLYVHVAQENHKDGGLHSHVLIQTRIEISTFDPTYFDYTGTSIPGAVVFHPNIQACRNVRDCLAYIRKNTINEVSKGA
Experimental: as §1

[7] = test system: T7, Rep nickase domain of porcine circovirus 2
T7 sequence (residues 2-116 of Rep, tag left off): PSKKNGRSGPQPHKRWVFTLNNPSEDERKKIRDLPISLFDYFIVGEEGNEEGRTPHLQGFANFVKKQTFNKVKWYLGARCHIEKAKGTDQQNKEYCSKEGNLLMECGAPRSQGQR
Experimental: as §1

[8] = test system: T8, Rep nickase domain of tomato golden mosaic virus
T8 sequence (residues 1-124 of Rep, tag left off): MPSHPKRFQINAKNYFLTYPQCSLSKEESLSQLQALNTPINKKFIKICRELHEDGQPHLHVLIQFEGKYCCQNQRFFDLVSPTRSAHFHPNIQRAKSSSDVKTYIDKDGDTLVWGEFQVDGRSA
Experimental: as §1

[9] = test system: T9, Rep nickase domain of tomato yellow leaf curl virus
T9 sequence (residues 1-136 of Rep, tag left off): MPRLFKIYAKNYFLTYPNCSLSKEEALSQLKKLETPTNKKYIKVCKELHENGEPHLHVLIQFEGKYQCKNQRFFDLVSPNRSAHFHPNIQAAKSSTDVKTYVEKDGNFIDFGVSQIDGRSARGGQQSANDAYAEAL
Experimental: as §1

[10] = test system: T10, Rep nickase domain of wheat dwarf virus
T10 sequence (residues 1-137 of Rep, tag left off): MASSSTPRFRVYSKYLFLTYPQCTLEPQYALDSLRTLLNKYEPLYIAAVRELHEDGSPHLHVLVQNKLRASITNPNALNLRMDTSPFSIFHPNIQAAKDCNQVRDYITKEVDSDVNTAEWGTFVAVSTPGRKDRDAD
Experimental: as §1

Sequence	uncleaved DNA left (log2) [1]	uncleaved DNA left (log2) [2]	uncleaved DNA left (log2) [3]	uncleaved DNA left (log2) [4]	uncleaved DNA left (log2) [5]	uncleaved DNA left (log2) [6]	uncleaved DNA left (log2) [7]	uncleaved DNA left (log2) [8]	uncleaved DNA left (log2) [9]	uncleaved DNA left (log2) [10]
GACGTGC	-0.0227	-0.0175	-0.0637	0.0905	-0.211	-0.449	-0.00853	-0.137	-0.0292	-0.127
ACGGGAG	0.0733	-0.0597	-0.635	-0.243	0.0526	-0.688	0.189	0.113	0.0626	-0.135
GGACCGC	0.0995	0.124	0.684	1.45	-0.0417	1.79	0.26	-0.0682	0.147	0.107
GGAGGTC	0.0255	-0.0412	0.599	1.39	0.0309	1.91	-0.00828	-0.0893	-0.101	-0.0481
AAGTAGA	0.0281	0.0533	-0.117	-0.198	0.0987	-0.384	-2.15	0.167	0.0471	0.0108
CCGAACA	-0.189	-0.0471	-0.0661	-1.36	-0.0558	-0.453	-0.211	-0.0155	-0.0837	-0.0768
CCCATCA	-0.0269	0.118	0.394	-0.14	-0.000995	0.0489	0.0446	0.0416	0.15	0.205
TTACTGT	0.151	0.111	0.0578	-0.243	0.00792	0.996	0.0345	-0.159	0.0132	0.0277
GGAGACG	0.12	0.101	0.744	1.66	0.131	1.89	0.326	0.0253	0.141	0.073
CTAAATA	0.107	0.0747	-0.0786	-1.54	0.117	-0.59	-0.0227	0.113	0.0371	0.171
ACGTACG	-0.0994	-0.00413	-0.874	-0.295	-0.00624	-0.936	0.0757	0.043	-0.0073	-0.0813
AGACCCA	-0.0377	0.0923	0.389	0.875	-0.106	2.06	0.0295	0.0928	-0.0108	-0.138
CTCTCAG	0.0807	-0.00209	-0.802	-0.505	0.0544	-0.936	0.172	-0.118	-0.0198	-0.0645
CCCTCCA	-0.0693	0.0236	-0.033	-0.857	0.0419	-0.0702	-0.187	0.0848	-0.122	0.00515
TGTATAT	0.124	0.149	0.306	0.378	0.106	0.757	-0.717	-0.043	0.12	0.0725
TGAGGTC	-0.0115	-0.0282	0.432	1.95	0.0514	1.36	-0.0849	0.079	-0.0198	-0.00986
CAGACGA	0.141	0.0959	0.00906	0.211	0.0939	-0.568	0.161	0.123	0.0659	-0.0159
AGCCCTT	0.178	0.0299	0.893	1.63	0.0485	2.21	-0.0644	-0.00893	-0.0909	0.192
TCCACCA	-0.14	-0.0419	0.108	-1.51	-0.0291	-0.391	-0.407	0.00884	0.0528	-0.0549
TGAGTTT	-0.0161	-0.0955	0.0937	-1.71	0.0827	0.243	-0.101	-0.119	-0.0453	-0.0534

Sequence	uncleaved DNA left (log2) [1]	uncleaved DNA left (log2) [2]	uncleaved DNA left (log2) [3]	uncleaved DNA left (log2) [4]	uncleaved DNA left (log2) [5]	uncleaved DNA left (log2) [6]	uncleaved DNA left (log2) [7]	uncleaved DNA left (log2) [8]	uncleaved DNA left (log2) [9]	uncleaved DNA left (log2) [10]
CTTTCAC	-0.171	-0.135	-0.199	-0.706	-0.0694	-0.863	-0.142	-0.202	-0.143	-0.113
AGGCGGT	-0.0481	-0.0153	0.0574	0.935	0.0159	1.13	0.137	0.185	-0.0999	-0.117
GAGGTGG	-0.185	-0.105	0.01	0.361	-0.0109	0.0377	0.0364	0.0506	-0.109	0.00363
CGAGGGG	-0.0491	0.0163	0.166	0.64	-0.0419	0.424	0.142	-0.0297	-0.0238	0.00782
AAGTGAT	0.0297	-0.121	0.205	1.61	-0.0557	1.84	-3.19	0.18	-0.179	0.0591
GGCGGTG	0.0213	-0.0314	-0.00142	0.383	-0.116	1.34	0.136	0.0124	-0.119	-0.1
TTGCGTG	0.0487	-0.0114	-0.633	-0.618	0.0371	-1.1	0.164	0.0149	0.0496	0.0727
TTAAGTC	0.0255	-0.0701	-3.32	-3.1	-0.025	-2.04	0.0295	-1.15	-0.0225	-2.23
CCACGGC	0.0726	0.0544	-0.0352	-0.301	0.126	-0.639	0.0862	-0.0608	-0.000974	-0.0318
CCGGGAC	-0.0626	0.097	0.817	1.46	-0.0368	2.2	0.0848	-0.00054	0.0943	-0.00895
AACGAGC	0.0621	0.0188	0.105	0.685	0.066	0.129	0.104	0.129	-0.0476	0.012
CTGTGGC	0.102	-0.0697	-0.163	-0.476	0.0557	-0.979	0.0946	0.088	0.0869	0.0216
TCATATT	-3.78	-2.68	-4.09	-3.57	-0.653	-3	-3.84	-3.34	-0.163	-3.55
AAGAGCG	-0.00841	0.0195	-0.825	-0.466	0.0814	-1.18	0.181	0.0412	0.0555	-0.0248
GTCCTCT	0.0773	0.0705	0.354	0.597	-0.00239	1.63	0.129	0.0299	0.102	0.102
GGGCGGG	0.26	0.185	0.869	1.73	0.213	2.11	0.332	0.12	0.0106	0.159
AGTCAGG	0.0602	-0.0155	0.17	0.872	-0.0688	0.449	0.0576	0.0629	-0.123	-0.103
CTGTCGC	-0.108	-0.0677	-0.753	-0.719	-0.074	-1.08	0.0402	-0.181	-0.0411	-0.221
AGACAGA	0.015	0.0903	0.628	1.3	0.053	1.44	0.102	0.034	0.0351	0.0842
GATCCTT	-0.0105	0.0865	0.531	-0.378	0.0292	1.53	-0.18	0.127	0.138	0.143

Sequence	uncleaved DNA left (log2) [1]	uncleaved DNA left (log2) [2]	uncleaved DNA left (log2) [3]	uncleaved DNA left (log2) [4]	uncleaved DNA left (log2) [5]	uncleaved DNA left (log2) [6]	uncleaved DNA left (log2) [7]	uncleaved DNA left (log2) [8]	uncleaved DNA left (log2) [9]	uncleaved DNA left (log2) [10]
CGTGGGC	0.0367	-0.0516	0.229	0.587	-0.00348	0.206	0.063	-0.101	-0.00284	-0.115
TGCCACT	0.0977	0.0462	0.0977	-1.21	-0.0268	0.163	-0.139	-0.0106	-0.0666	0.0358
CGCTCGT	-0.0492	0.011	0.803	1.7	-0.0639	0.973	-0.163	-0.0809	-0.00517	-0.0834
TATTAAT	-3.67	-3.4	-2.88	-2.75	-0.999	-0.288	-3.92	-1.05	0.0506	-1.05
GTAAAAA	0.152	0.112	0.31	0.952	0.0796	1.58	0.189	0.254	0.11	0.148
TCGTTCC	-0.129	-0.237	0.189	0.0538	-0.00337	0.0733	-0.146	-0.0685	0.0614	-0.0479
CTGGGAC	-0.11	0.128	0.802	2.01	0.124	2.25	0.348	0.0366	0.125	0.14
ACTCCTT	-0.0367	0.0403	-0.174	-1.95	-0.0191	-0.531	-0.74	-0.0645	-0.123	0.00129
AGTATTA	-0.0825	-0.129	-0.0162	-0.639	-0.122	-0.277	-1.77	-0.139	-0.0136	0.0285
AATCGCC	-0.00703	-0.0576	-0.229	-0.242	-0.0102	-0.632	0.0634	-0.00564	0.0493	-0.00892
CACTAGT	-3.08	-3.24	-0.618	-2.19	-0.181	-0.957	-3.59	-0.00512	-0.0579	-0.103
CAAATCA	0.0671	0.0554	-0.029	-1.75	-0.00678	-0.338	0.0183	0.0418	0.0722	0.124
TCTAATA	0.102	0.0909	0.0372	-1.28	0.0416	-0.394	-0.125	0.145	0.125	0.118
AAGTAGT	-1.04	-2.12	-0.0523	0.0668	-1.49	0.396	-3.67	0.0613	-0.0743	0.0142
GCGCCAA	0.0614	0.109	0.0732	0.503	0.0118	0.519	0.0185	0.00329	0.206	0.162
AGAGATC	0.182	-0.00338	0.253	0.663	0.164	0.78	0.102	0.123	-0.0389	0.079
ACCTACC	0.00469	0.0325	-0.279	-1.94	0.0641	-0.682	-0.445	-0.0166	0.0234	-0.0473
TAAAAGG	0.106	0.00875	0.0923	0.412	0.0212	0.987	0.226	0.139	-0.115	0.016
TGTAGAA	0.128	0.0106	0.286	0.151	0.0442	0.0896	0.0699	0.169	0.00689	0.00723
ATCCGTT	-0.0886	-0.155	-0.303	-1.18	-0.205	-0.886	-0.81	-0.267	-0.184	-0.171
